{"source": "PubChem BioAssay AID686971", "about": "(National Center for Advancing Translational Sciences (NCATS), 2013)", "note": "The campaign covered roughly 360,000 compounds. About 7,500 (2.1%) were called active. The shares of active, inactive and inconclusive entries below differ from those in the screen. The call rests on the fitted dose curve; in most records, active means well fitted cell-killing curve with a large enough effect; inconclusive means small, poorly fitted or top-dose-only effect, or effect the other way, or another doubt; inactive means no such curve, though single readings can be large or run the other way. No potency is given beside an inconclusive call; the fits are too rough. Potency means the concentration at half of the fitted maximal effect; tags describe the fitted curve by direction and shape.", "data": [{"assay": "qHTS for induction of synthetic lethality in tumor cells producing 2HG: qHTS for the HT-1080-IDH1KD cell line;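 on activity, negative = toxicity: 0% = DMSO wells and -100% = cell-free medium wells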", "conditions": "HT-1080 IDH1 knockdown viability, ATP luminescence, 48 h; activity, negative = toxicity: at 46.1 µM (top of the series) unless noted", "summary_of_the_method": "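Cytotoxicity counter-line: IDH1KD HT-1080, 48 h, CellTiter-Glo. Curves classed by r2, magnitude and activity.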", "values": [{"smiles": "CN(C)CCCNc1nc(-c2ccc(Cl)cc2)nc2ccccc12", "Potency": "inconclusive [cytotoxic, partial curve]"}, {"smiles": "OCCC1CN(Cc2ccon2)CCN1CCc1ccccc1", "note": "(configuration not stated)", "Potency": "inactive"}, {"smiles": "CCc1ccccc1N(CC(=O)N1CCCCCC1)S(C)(=O)=O", "Potency": "inactive"}, {"smiles": "O=C(Nc1cccc([N+](=O)[O-])c1)c1ccc2ccccc2c1O", "Potency": "inconclusive [cytotoxic, single point]"}, {"smiles": "CC(=O)Nc1ccc(-c2csc(Nc3ccc(Cl)cn3)n2)cc1", "Potency": "inconclusive [cytotoxic, partial curve]"}, {"smiles": "COc1ccc(C2CC(c3ccc4ccccc4c3)=NN2C(=O)CNC2CCCCC2)cc1", "note": "(configuration not stated)", "Potency": "inconclusive [cytotoxic, partial curve]"}, {"smiles": "Cc1cc2cc3n(c2nn1)N=C(Cl)CC3", "Potency": "inconclusive [cytotoxic, single point]"}, {"smiles": "CC(=O)N1CC(C)Sc2ccc(S(=O)(=O)NCCc3ccc(C)cc3)cc21", "note": "(configuration not stated)", "Potency": "inactive"}, {"smiles": "N#CCSc1nc2[nH]ncc2c(=O)n1-c1ccccc1Br", "Potency": "inconclusive [cytotoxic, single point]"}, {"smiles": "CC(Sc1nnc(-c2ccc(Cl)cc2Cl)n1Cc1ccccc1)C(=O)Nc1nccs1", "note": "(configuration not stated)", "Potency": "inconclusive [cytotoxic, single point]"}, {"smiles": "COc1ccc(-c2[nH]c(-c3ccc(C)cc3)nc2SCC(=O)NC2CCCC2)cc1", "Potency": "inconclusive [cytotoxic, single point]"}, {"smiles": "O=C(N/N=C/c1ccc([N+](=O)[O-])o1)c1ccc(NS(=O)(=O)c2cccs2)cc1", "Potency": "active: 23.1 µM"}, {"smiles": "N#CC(=C1CCCC1)c1nc(-c2ccccc2O)cs1", "Potency": "inconclusive [cytotoxic, single point]"}, {"smiles": "COc1cc(-c2cnc3c(NC=O)cc(-c4ccc(N5CCN(C)CC5)cc4)cn23)cc(OC)c1OC", "Potency": "inconclusive [cytotoxic, single point]"}, {"smiles": "CC(OC(=O)c1cc(=O)[nH]c2ccccc12)C(=O)NC1CCCC1", "note": "(configuration not stated)", "Potency": "inactive"}, {"smiles": "CCO/C(C)=N/n1c2nc3ccccc3nc2c2c(=O)n(C3CCCC3)c(C)nc21", "Potency": "inactive"}, {"smiles": "CCN(CCCNC(=O)CN1C(=O)COc2ccc(S(=O)(=O)N3CCC(C)CC3)cc21)Cc1ccccc1", "Potency": "inconclusive [cytotoxic, single point]"}, {"smiles": "Cc1ccc(C)c(S(=O)(=O)NCc2cccnc2)c1", "Potency": "inconclusive [cytotoxic, single point]"}, {"smiles": "Cc1cc(C)cc(NC(=O)/C=C/c2ccc([N+](=O)[O-])s2)c1", "Potency": "inconclusive [cytotoxic, partial curve]"}, {"smiles": "COc1ccc(N2CCN(C(=O)c3cn(C4CCCC4)c(=O)c4c3c3ccccc3n4C)CC2)cc1", "Potency": "inconclusive [cytotoxic, single point]"}, {"smiles": "O=c1[nH]c(Nc2ccc(F)cc2)cc2ccccc12", "Potency": "inactive"}, {"smiles": "COc1ccc2c(c1)-c1c(ssc1=S)C(C)(C)N2S(=O)(=O)c1ccc(C)cc1", "Potency": "active: 6.51 µM"}, {"smiles": "Cc1cccc(C(=O)N(CCc2ccccc2)Cc2ccccc2)c1[N+](=O)[O-]", "Potency": "inconclusive [cytotoxic, single point]"}, {"smiles": "Cc1c(Nc2nc3ccccc3nc2NS(=O)(=O)c2ccccc2)c(=O)n(-c2ccccc2)n1C", "activity, negative = toxicity": "inconclusive: 27.4%"}, {"smiles": "COc1cccc(Cn2c(-c3nonc3N)nc3ccccc32)c1", "Potency": "active: 2.06 µM"}, {"smiles": "CC1=CC(C)(C)NC(=S)N1c1ccc(C)cc1", "Potency": "active: 11.2 µM"}, {"smiles": "CCC1S/C(=N/N=C/c2ccco2)N(Cc2ccccc2C)C1=O", "note": "(configuration not stated)", "Potency": "inconclusive [cytotoxic, single point]"}, {"smiles": "Cn1c(/C(C#N)=C(\\O)c2cccc(F)c2)nc2ccccc21", "Potency": "inconclusive [cytotoxic, single point]"}, {"smiles": "COc1ccc(-c2cc(NC=O)c3ncc(-c4cccc(OC)c4)n3c2)cc1", "Potency": "active: 9.2 µM"}, {"smiles": "CCOc1cccc2sc(Nc3nc4ccc(NC(C)=O)cc4s3)nc12", "Potency": "inconclusive [cytotoxic, partial curve]"}, {"smiles": "CCOc1cc(C2c3c(-c4ccccc4)n[nH]c3C(=O)N2c2ccc(C(=O)O)cc2)ccc1O", "note": "(configuration not stated)", "Potency": "inactive"}, {"smiles": "Clc1ccc(CN2CCN(c3ncccn3)CC2)cc1", "Potency": "inactive"}, {"smiles": "Fc1ccc(CN2CCN3CCCC3C2C2CCCCC2)cc1F", "note": "(configuration not stated)", "Potency": "inconclusive [cytotoxic, partial curve, poor fit]"}, {"smiles": "CC(=O)Nc1cccc(-c2ccnc3c2CC(C(=O)Nc2ccc(F)c(Cl)c2)O3)c1", "note": "(configuration not stated)", "Potency": "inconclusive [cytotoxic, partial curve]"}, {"smiles": "FC(F)(F)c1ccccc1NC(=S)N/N=C1\\CC2CC=CC12", "note": "(configuration not stated)", "Potency": "inconclusive [cytotoxic, single point]"}, {"smiles": "COc1ccc(C(=O)N/N=C/c2cc3ccccc3[nH]c2=S)cc1", "Potency": "inconclusive [cytotoxic, single point]"}, {"smiles": "CCOc1cc(/C=C2/C(=O)ON=C2C)ccc1OCc1ccccc1F", "Potency": "inconclusive [cytotoxic, single point]"}, {"smiles": "COC(=O)[C@]12CCCCC=C1N(CCC1=CCCCC1)C(=O)[C@H](CC(=O)N1CCC(c3ccccc3)CC1)C2", "Potency": "inconclusive [cytotoxic, single point]"}, {"smiles": "CCc1ccc(NC(=O)COc2ccc(/C=C(/C#N)c3nc4ccccc4[nH]3)cc2OC)cc1", "Potency": "inconclusive [cytotoxic, full curve]"}, {"smiles": "Cc1cccc(NC(=O)C2CCN(S(=O)(=O)c3c(C)c(C)cc(C)c3C)CC2)n1", "Potency": "inconclusive [cytotoxic, partial curve]"}, {"smiles": "Cc1cccc(C)c1OCc1cc(C(=O)N2CCN(c3ccccc3)CC2C)no1", "note": "(configuration not stated)", "Potency": "inconclusive [cytotoxic, single point]"}, {"smiles": "Cc1ccccc1NC(=S)NNC(=O)c1csc2c1CCC(C)C2", "note": "(configuration not stated)", "Potency": "inconclusive [cytotoxic, partial curve]"}, {"smiles": "Cc1cc(OCC(=O)N2CCc3ccccc3C2)c2c(-c3ccccc3)cc(=O)oc2c1", "Potency": "inconclusive [cytotoxic, single point]"}, {"smiles": "CC(C)[C@H](NC(=O)N1c2ccccc2NC(=O)[C@@H]1C(C)C)C(=O)N[C@@H](C(=O)O)c1ccccc1", "Potency": "inconclusive [cytotoxic, single point]"}, {"smiles": "Cc1ccc2nc(C3CCCCC3)[nH]c2c1", "Potency": "inactive"}, {"smiles": "CCN(CC)c1ccc(NC(=O)COc2ccccc2C#N)cc1S(=O)(=O)Nc1ccccc1OC", "Potency": "inactive"}, {"smiles": "C/C(CC(=O)Nc1ccccn1)=N\\NC(=O)Cc1cccc2ccccc12", "Potency": "inactive"}, {"smiles": "O=C(c1[nH]c(C(F)(F)F)nc1-c1ccccc1)N1CCc2c([nH]c3ccccc23)C1", "Potency": "active: 4.61 µM"}, {"smiles": "Cc1ccc(SCc2[nH]nc3c2C(c2ccc(C)o2)C(C#N)=C(N)O3)cc1", "note": "(configuration not stated)", "Potency": "inconclusive [cytotoxic, single point]"}, {"smiles": "CCCC(=O)NC(c1ccccc1OC)c1ccc2cccnc2c1O", "note": "(configuration not stated)", "Potency": "inconclusive [cytotoxic, full curve]"}, {"smiles": "O=c1nc(N/N=C/c2ccccn2)cn[nH]1", "Potency": "inconclusive [cytotoxic, full curve]"}, {"smiles": "NC[C@@H]1O[C@H](C23CC4CC(CC(C4)C2)C3)Cc2c1ccc(O)c2O", "Potency": "inconclusive [cytotoxic, single point]"}, {"smiles": "CC(C)Cn1c(-c2ccco2)n[nH]c1=S", "Potency": "inconclusive [cytotoxic, single point]"}, {"smiles": "Cc1nn(C)c(Cl)c1S(=O)(=O)N[C@@H](c1ccccc1)[C@]1(C)C[C@H]1[C@@H](C)C(=O)Nc1ccc2ccccc2c1", "Potency": "inconclusive [cytotoxic, single point]"}, {"smiles": "COc1ccccc1COc1cccn2c(N(C)C(=O)CCC3CCCC3)c(C)nc12", "Potency": "inconclusive [cytotoxic, single point]"}, {"smiles": "COc1ccccc1C(=O)NCC(=O)N/N=C/c1ccc2c(c1)OCO2", "Potency": "active: 20.6 µM"}, {"smiles": "CC(C)Cc1cc(CN2CCC(CO)(Cc3cccc(C(F)(F)F)c3)CC2)[nH]n1", "Potency": "inconclusive [cytotoxic, single point]"}, {"smiles": "C[C@H](NC(=O)c1nc[nH]c1C(=O)NCc1ccc(CNC(=O)OC(C)(C)C)cc1)C(=O)OCc1ccccc1", "Potency": "inactive"}, {"smiles": "CN(C)CCC(c1ccc(Br)cc1)c1ccccn1", "note": "(configuration not stated)", "Potency": "inconclusive [cytotoxic, partial curve]"}, {"smiles": "CCN1CCN(CCCNC(=O)c2cc3c(=O)[nH]c4ccccc4c3s2)CC1", "Potency": "inconclusive [cytotoxic, single point]"}, {"smiles": "O=C1Nc2c(Cl)cc(Cl)cc2C1=O", "Potency": "inconclusive [cytotoxic, partial curve]"}, {"smiles": "CCC(=O)c1ccccc1OCCCN1CCC(Cc2ccccc2)CC1", "Potency": "inconclusive [cytotoxic, single point]"}, {"smiles": "CN(C(=O)c1cccc(NC(=O)Cc2ccc(NC(=O)C3CCN(C(=O)CCc4ccccc4)CC3)cc2)c1)C1CCCCC1", "Potency": "inactive"}, {"smiles": "Cc1c(CCOC(=O)C23CC4CC(CC(C)(C4)C2)C3)sc[n+]1CC(=O)c1ccccc1", "Potency": "inconclusive [cytotoxic, single point]"}, {"smiles": "CCOC(=O)N1CCC(NC(=O)c2sc(-n3cccc3)nc2C)CC1", "Potency": "inactive"}, {"smiles": "COc1ccc(C(C[N+](=O)[O-])C2(c3ccc(OC)c(OC)c3)C(=O)c3ccccc3C2=O)cc1", "note": "(configuration not stated)", "Potency": "active: 20.6 µM"}, {"smiles": "O=C(C1CC1)N1CCc2cc(S(=O)(=O)N(CCO)Cc3ccccc3)ccc21", "Potency": "inconclusive [cytotoxic, single point]"}]}]}
